# Experimental data: PMC4336329 (PLoS ONE, 2015)
# Hit rate of the full screen: of about 310,000 compounds, about 2,200 (0.71%) showed an effect of 50% or more. The effect is printed as a negative number. This is one part of the list.
# Biological target: human ether-à-go-go-related gene (hERG) potassium channel (human, UniProt Q12809)
# Assay: primary screen, population patch clamp on CHO cells stably expressing hERG
# human ether-à-go-go-related gene (hERG) potassium channel, sequence (Q12809 whole entry, looked up): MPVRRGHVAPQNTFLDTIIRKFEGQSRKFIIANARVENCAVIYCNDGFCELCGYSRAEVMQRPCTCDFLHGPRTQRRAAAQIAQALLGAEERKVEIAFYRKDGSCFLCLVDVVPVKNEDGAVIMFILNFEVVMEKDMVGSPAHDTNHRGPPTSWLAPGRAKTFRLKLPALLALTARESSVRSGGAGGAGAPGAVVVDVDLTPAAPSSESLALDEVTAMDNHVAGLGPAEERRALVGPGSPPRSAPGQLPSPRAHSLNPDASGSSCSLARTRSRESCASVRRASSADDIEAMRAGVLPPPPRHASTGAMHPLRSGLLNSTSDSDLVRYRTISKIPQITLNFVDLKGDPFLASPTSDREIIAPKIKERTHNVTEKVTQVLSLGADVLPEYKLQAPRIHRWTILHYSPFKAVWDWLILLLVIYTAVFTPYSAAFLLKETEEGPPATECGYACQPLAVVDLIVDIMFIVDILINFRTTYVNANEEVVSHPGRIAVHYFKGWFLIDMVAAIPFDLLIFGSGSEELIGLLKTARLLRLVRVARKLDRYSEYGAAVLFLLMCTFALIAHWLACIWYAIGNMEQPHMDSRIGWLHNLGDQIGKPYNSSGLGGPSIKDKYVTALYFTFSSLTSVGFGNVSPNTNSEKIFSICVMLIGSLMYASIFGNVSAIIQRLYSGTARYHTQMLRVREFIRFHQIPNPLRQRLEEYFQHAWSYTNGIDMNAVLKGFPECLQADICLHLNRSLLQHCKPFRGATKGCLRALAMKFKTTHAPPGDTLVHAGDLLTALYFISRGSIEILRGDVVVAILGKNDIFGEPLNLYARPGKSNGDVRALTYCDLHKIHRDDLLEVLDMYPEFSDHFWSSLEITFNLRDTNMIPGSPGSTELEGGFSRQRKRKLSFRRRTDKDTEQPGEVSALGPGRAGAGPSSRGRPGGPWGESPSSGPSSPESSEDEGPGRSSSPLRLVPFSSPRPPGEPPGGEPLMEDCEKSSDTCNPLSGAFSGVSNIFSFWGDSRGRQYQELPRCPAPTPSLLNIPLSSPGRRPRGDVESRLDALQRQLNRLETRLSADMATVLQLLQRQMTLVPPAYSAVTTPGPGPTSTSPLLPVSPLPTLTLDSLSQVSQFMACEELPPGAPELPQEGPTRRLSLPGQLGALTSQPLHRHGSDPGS
row,Structure (SMILES),"hERG current change (%, negative = inhibition) at 1uM"
1,COc1ccc(S(=O)(=O)N2CCOC2CNC(=O)C(=O)NCc2ccncc2)cc1OC (centres unmarked),4.24%
2,CC(C)(C)c1ccc(C2CC2C(=O)N/N=C\c2cc3ccccc3nc2Cl)cc1 (centres unmarked),-5.85%
3,CC(C)N=C(NC#N)SCc1ccc(F)cc1,10.6%
4,Cc1c(C)c2ccc(OCC(=O)NC3CCN(Cc4ccccc4)CC3)c(C)c2oc1=O,-5.62%
5,OCc1ccccc1OCCCOc1cccc2cccnc12,9.1%
6,CC1(C(=O)NCc2cccnc2)CCC(=O)N1CCc1ccccc1 (centres unmarked),3.82%
7,COC(=O)c1c(NC(=O)CN2CCC3(O)CCCCC3C2c2ccc(OC)cc2OC)sc(C)c1C (centres unmarked),10.2%
8,COc1ccc(CCN2C(=O)CC(C(N)=O)SC2=Nc2ccccc2)cc1 (centres unmarked),5.42%
9,CCOC(=O)N1CCN(C(=O)c2oc3ccc(S(=O)(=O)N4CCOCC4)cc3c2C)CC1,3.2%
10,O=C(/C=C/c1ccc([N+](=O)[O-])s1)N1CCCC1,-14.9%
11,CCn1c2ccccc2c2nnc(SCC(=O)NC3CCS(=O)(=O)C3)nc21 (centres unmarked),8.68%
12,CNC(=O)c1[nH]cnc1C(=O)Nc1ccccc1,7.15%
13,CCc1ccc2oc(-c3cc(N)cc(C)c3O)nc2c1,12.5%
14,O=C(c1ccc(Br)cc1)N1CCCC(c2nc(-c3cccs3)no2)C1 (centres unmarked),14.9%
15,Cc1cc(C(=O)O)cc(S(=O)(=O)Nc2ccccc2C(=O)NC(C)c2ccccc2)c1C (centres unmarked),14.6%
16,CC(C)CN1CCC(C(=O)N2CCN(c3ccccc3F)CC2)CC1,-8.1%
17,CN(C)/C=N/C(=S)Nc1ccc(F)cc1,10.4%
18,CCN(CC)S(=O)(=O)c1cccc(-c2nnc(SCC(=O)NC)n2CCc2ccccc2)c1,-4.52%
19,O=C(c1c(F)cccc1F)N(C1CCCCC1)C1CCCCC1,3.94%
20,CS(=O)(=O)N1CCCC(C(=O)NCCc2ccc(Cl)cc2)C1 (centres unmarked),-13.3%
21,COc1ccc(OCc2nnc3n2N=C(c2ccc(OC)cc2)CS3)cc1,4.89%
22,C=CCOc1ccc(/C=N/Nc2ccccn2)cc1OC,13%

row,Structure (SMILES),"hERG current change (%, negative = inhibition) at 1uM"
1,NC(=O)COC(=O)CC12CC3CC(CC(Br)(C3)C1)C2,14.2%
2,CC(C)(Oc1ccc(Br)cc1Cl)C(=O)Nc1ccon1,-8.06%
3,CCCCNS(=O)(=O)c1ccc2c(c1)oc(=O)n2CC(=O)OCC,17%
4,COc1cccc2cc(CC(=O)c3cc(C)ccc3C)c(=O)oc12,14.5%
5,CC(C)N(C(=O)COC(=O)[C@H](C)NC(=O)c1ccco1)c1ccccc1,17.1%
6,Cc1cc(-c2nn(-c3ccccc3F)cc2CN2CCCC(C(N)=O)C2)c(C)s1 (centres unmarked),0.456%
7,CC/C(Cc1ccccc1)=N\NC(=O)c1cc([N+](=O)[O-])cc([N+](=O)[O-])c1,-10.9%
8,CCCN(CCC)CC(=O)NCC1(c2ccccc2)CCOCC1.Cl,2.31%
9,Cc1cccc(Nc2nc(NCc3ccco3)nc(N)c2[N+](=O)[O-])c1,15.3%
10,COC(=O)Cn1c(CN2CCc3ccccc3C2)nc2c1c(=O)n(C)c(=O)n2C,-3.51%
11,CC(C)(CNC(=O)c1ccc(S(=O)(=O)N2CCCC2)cc1)N1CCOCC1,9.89%
12,CCOC(=O)c1c(NC(C)=O)sc2c1C1CCN2CC1.Cl,15.1%
13,COc1ccc(C2=NN(C(=O)c3cccs3)C(c3ccccc3O)C2)cc1 (centres unmarked),3.31%
14,COc1cc2c(cc1NC(=O)CSc1nc3ccc(C)cc3[nH]1)oc1ccccc12,2.54%
15,O=c1nc(SCc2c(F)cccc2Cl)nc(-c2ccc(Cl)cc2)[nH]1,14%
16,CCOC(=O)CN1C(=O)S/C(=C/c2cc(C)n(C)c2C)C1=O,9.27%
17,CC(C)CCNC(=O)Cc1ccc(Nc2nc(=S)[nH]c3ccccc23)cc1,8.18%
18,Cc1c(NC(=O)c2cc(-c3cccs3)nc3ccccc23)c(=O)n(-c2ccccc2)n1C,-10.7%
19,O=C(O)C(=O)O.c1ccc(CNCCc2ccc3c(c2)OCO3)nc1,-5.34%
20,CCOC(=O)c1cc2cc([N+](=O)[O-])ccc2oc1=O,-0.472%
21,Cc1nn(C(=O)N2CCOCC2)c(C)c1C,18.2%
22,COCCn1c(SCC(=O)c2[nH]c(C)c(C(C)=O)c2C)nc2ccccc2c1=O,3.05%
